The list shows a part of the results.
Tests used:
Experiment in all cases: glycan array binding signal (z-score within array); higher = stronger binding
Settings in all cases: glycan notation: IUPAC condensed, linker removed
[1] = biological target: Fuc(a1-2)[GalNAc(a1-3)]Gal(b1-4)GlcNAc(b1-3)[Fuc(a1-2)[GalNAc(a1-3)]Gal(b1-4)GlcNAc(b1-6)]GalNAc
Outline: (§1)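 From the Consortium for Functional Glycomics database, 3228 arrays were curated, keeping only those whose protein sequence was available. Binding is given as a within-array Z-score averaged across arrays sharing a protein sequence and across linkers. Negative Z-scores can be read as non-binding.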

[2] = biological target: Fuc(a1-2)[GalNAc(a1-3)]Gal(b1-4)GlcNAc(b1-6)GalNAc
Outline: as §1

[3] = biological target: Fuc(a1-2)[GalNAc(a1-3)]Gal(b1-4)[Fuc(a1-3)]GlcNAc
Outline: as §1

[4] = biological target: Fuc(a1-2)[GalNAc(a1-3)]Gal(b1-4)[Fuc(a1-3)]GlcNAc(b1-3)GalNAc
Outline: as §1

[5] = biological target: Fuc(a1-2)[GalNAc(a1-4)]Gal(b1-4)GlcNAc
Outline: as §1

[6] = biological target: Fuc(a1-2)[GalNAc(b1-3)]Gal
Outline: as §1

[7] = biological target: Fuc(a1-3)GlcNAc
Outline: as §1

[8] = biological target: Fuc(a1-3)[Gal(b1-4)]Glc6S
Outline: as §1

[9] = biological target: Fuc(a1-3)[Gal(b1-4)]GlcNAc
Outline: as §1

[10] = biological target: Fuc(a1-3)[Gal(b1-4)]GlcNAc(b1-2)Man
Outline: as §1

[11] = biological target: Fuc(a1-3)[Gal(b1-4)]GlcNAc(b1-2)Man(a1-3)[Fuc(a1-3)[Gal(b1-4)]GlcNAc(b1-2)Man(a1-6)]Man(b1-4)GlcNAc(b1-4)GlcNAc
Outline: as §1

[12] = biological target: Fuc(a1-3)[Gal(b1-4)]GlcNAc(b1-2)Man(a1-3)[Fuc(a1-3)[Gal(b1-4)]GlcNAc(b1-2)Man(a1-6)]Man(b1-4)GlcNAc(b1-4)[Fuc(a1-6)]GlcNAc
Outline: as §1

[13] = biological target: Fuc(a1-3)[Gal(b1-4)]GlcNAc(b1-2)Man(a1-6)[Gal(b1-4)GlcNAc(b1-2)Man(a1-3)]Man(b1-4)GlcNAc(b1-4)GlcNAc
Outline: as §1

[14] = biological target: Fuc(a1-3)[Gal(b1-4)]GlcNAc(b1-3)Gal(b1-3)[Fuc(a1-4)]GlcNAc
Outline: as §1

[15] = biological target: Fuc(a1-3)[Gal(b1-4)]GlcNAc(b1-3)Gal(b1-4)[Fuc(a1-3)]GlcNAc
Outline: as §1

[16] = biological target: Fuc(a1-3)[Gal(b1-4)]GlcNAc(b1-3)Gal(b1-4)[Fuc(a1-3)]GlcNAc(b1-3)Gal(b1-4)[Fuc(a1-3)]GlcNAc
Outline: as §1

[17] = biological target: Fuc(a1-3)[Gal(b1-4)]GlcNAc(b1-3)GalNAc
Outline: as §1

[18] = biological target: Fuc(a1-3)[Gal(b1-4)]GlcNAc(b1-4)Gal(b1-4)[Fuc(a1-3)]GlcNAc
Outline: as §1

[19] = biological target: Fuc(a1-3)[Gal(b1-4)]GlcNAc(b1-4)Gal(b1-4)[Fuc(a1-3)]GlcNAc(b1-4)Gal(b1-4)[Fuc(a1-3)]GlcNAc
Outline: as §1

[20] = biological target: Fuc(a1-3)[Gal(b1-4)]GlcNAc(b1-6)GalNAc
Outline: as §1

[21] = biological target: Fuc(a1-3)[Gal(b1-4)]GlcNAc(b1-6)[Gal(b1-3)GlcNAc(b1-3)]Gal(b1-4)Glc
Outline: as §1

[22] = biological target: Fuc(a1-3)[Gal(b1-4)]GlcNAc6S
Outline: as §1

[23] = biological target: Fuc(a1-3)[Gal3S(b1-4)]Glc
Outline: as §1

[24] = biological target: Fuc(a1-3)[Gal3S(b1-4)]Glc6S
Outline: as §1

[25] = biological target: Fuc(a1-3)[Gal3S(b1-4)]GlcNAc
Outline: as §1

[26] = biological target: Fuc(a1-3)[Gal3S(b1-4)]GlcNAc6S
Outline: as §1

[27] = biological target: Fuc(a1-3)[GalNAc(b1-4)]GlcNAc
Outline: as §1

[28] = biological target: Fuc(a1-3)[GalNAc(b1-4)]GlcNAc6S
Outline: as §1

[29] = biological target: Fuc(a1-3)[Neu5Ac(a2-3)]Gal(b1-4)GlcNAc(b1-3)GalNAc
Outline: as §1

[30] = biological target: Fuc(a1-4)GlcNAc
Outline: as §1

[31] = biological target: Fuc(b1-3)GlcNAc
Outline: as §1

[32] = biological target: Gal(a1-2)Gal
Outline: as §1

[33] = biological target: Gal(a1-3)Gal
Outline: as §1

[34] = biological target: Gal(a1-3)Gal(b1-3)GlcNAc
Outline: as §1

[35] = biological target: Gal(a1-3)Gal(b1-3)GlcNAc(b1-2)Man
Outline: as §1

[36] = biological target: Gal(a1-3)Gal(b1-3)GlcNAc(b1-2)Man(a1-3)[Gal(a1-3)Gal(b1-3)GlcNAc(b1-2)Man(a1-6)]Man(b1-4)GlcNAc(b1-4)GlcNAc
Outline: as §1

[37] = biological target: Gal(a1-3)Gal(b1-3)GlcNAc(b1-3)GalNAc
Outline: as §1

[38] = biological target: Gal(a1-3)Gal(b1-3)GlcNAc(b1-6)GalNAc
Outline: as §1

[39] = biological target: Gal(a1-3)Gal(b1-3)[Fuc(a1-4)]GlcNAc(b1-2)Man(a1-3)[Gal(a1-3)Gal(b1-3)[Fuc(a1-4)]GlcNAc(b1-2)Man(a1-6)]Man(b1-4)GlcNAc(b1-4)GlcNAc
Outline: as §1

[40] = biological target: Gal(a1-3)Gal(b1-4)Glc
Outline: as §1

[41] = biological target: Gal(a1-3)Gal(b1-4)GlcNAc
Outline: as §1

[42] = biological target: Gal(a1-3)Gal(b1-4)GlcNAc(b1-2)Man
Outline: as §1

[43] = biological target: Gal(a1-3)Gal(b1-4)GlcNAc(b1-2)Man(a1-3)[Gal(a1-3)Gal(b1-4)GlcNAc(b1-2)Man(a1-6)]Man(b1-4)GlcNAc(b1-4)GlcNAc
Outline: as §1

[44] = biological target: Gal(a1-3)Gal(b1-4)GlcNAc(b1-3)GalNAc
Outline: as §1

[45] = biological target: Gal(a1-3)Gal(b1-4)GlcNAc(b1-6)GalNAc
Outline: as §1

B1: HPA (Helix pomatia), Q2F1K8 (protein)
chain: MQAFYSGLLLLCVVAFAAAQRVQSGKIDCGNDAGWAKVPSDDPGRDNTRELAKNITFASPYCRPPVVLLSITQLDVEQSQNLRVIARLYSVSPTGFKASCYTWHNTKVYSMSISWISIENY
Question: With B1 as the binder, how does the “glycan array binding signal (z-score)” value [1] read?
Answer: 2.1

Question: What about the “glycan array binding signal (z-score)” value [2] of the same binder?
Answer: 1.69

Question: And the “glycan array binding signal (z-score)” value [3]?
Answer: 2.43

Question: And the “glycan array binding signal (z-score)” value [4]?
Answer: 0.306

Question: And the “glycan array binding signal (z-score)” value [5]?
Answer: 2.81

Question: What about the “glycan array binding signal (z-score)” value [6] of the same binder?
Answer: 0.461

Question: What about the “glycan array binding signal (z-score)” value [7] of the same binder?
Answer: -0.216

Question: And the “glycan array binding signal (z-score)” value [8]?
Answer: 0.244

Question: And the “glycan array binding signal (z-score)” value [9]?
Answer: -0.246

Question: And the “glycan array binding signal (z-score)” value [10]?
Answer: -0.096

Question: What about the “glycan array binding signal (z-score)” value [11] of the same binder?
Answer: -0.126

Question: What about the “glycan array binding signal (z-score)” value [12] of the same binder?
Answer: 0.051

Question: What about the “glycan array binding signal (z-score)” value [13] of the same binder?
Answer: -0.969

Question: What about the “glycan array binding signal (z-score)” value [14] of the same binder?
Answer: 0.004

Question: What about the “glycan array binding signal (z-score)” value [15] of the same binder?
Answer: -0.242

Question: What about the “glycan array binding signal (z-score)” value [16] of the same binder?
Answer: -0.246

Question: And the “glycan array binding signal (z-score)” value [17]?
Answer: 0.232

Question: What about the “glycan array binding signal (z-score)” value [18] of the same binder?
Answer: -0.17

Question: And the “glycan array binding signal (z-score)” value [19]?
Answer: -0.09

Question: What about the “glycan array binding signal (z-score)” value [20] of the same binder?
Answer: -0.07

Question: What about the “glycan array binding signal (z-score)” value [21] of the same binder?
Answer: -0.163

Question: What about the “glycan array binding signal (z-score)” value [22] of the same binder?
Answer: 0.063

Question: What about the “glycan array binding signal (z-score)” value [23] of the same binder?
Answer: -0.133

Question: What about the “glycan array binding signal (z-score)” value [24] of the same binder?
Answer: -0.93

Question: And the “glycan array binding signal (z-score)” value [25]?
Answer: -0.184

Question: What about the “glycan array binding signal (z-score)” value [26] of the same binder?
Answer: -0.057

Question: What about the “glycan array binding signal (z-score)” value [27] of the same binder?
Answer: -0.145

Question: And the “glycan array binding signal (z-score)” value [28]?
Answer: -0.284

Question: And the “glycan array binding signal (z-score)” value [29]?
Answer: 4.26

Question: And the “glycan array binding signal (z-score)” value [30]?
Answer: -0.081

Question: What about the “glycan array binding signal (z-score)” value [31] of the same binder?
Answer: -0.219

Question: And the “glycan array binding signal (z-score)” value [32]?
Answer: -0.187

Question: What about the “glycan array binding signal (z-score)” value [33] of the same binder?
Answer: -0.35

Question: What about the “glycan array binding signal (z-score)” value [34] of the same binder?
Answer: -0.213

Question: And the “glycan array binding signal (z-score)” value [35]?
Answer: -0.389

Question: And the “glycan array binding signal (z-score)” value [36]?
Answer: 0

Question: And the “glycan array binding signal (z-score)” value [37]?
Answer: -0.108

Question: And the “glycan array binding signal (z-score)” value [38]?
Answer: -0.17

Question: What about the “glycan array binding signal (z-score)” value [39] of the same binder?
Answer: 0.104

Question: What about the “glycan array binding signal (z-score)” value [40] of the same binder?
Answer: -0.125

Question: And the “glycan array binding signal (z-score)” value [41]?
Answer: -0.224

Question: And the “glycan array binding signal (z-score)” value [42]?
Answer: -0.228

Question: What about the “glycan array binding signal (z-score)” value [43] of the same binder?
Answer: 0.004

Question: What about the “glycan array binding signal (z-score)” value [44] of the same binder?
Answer: -0.167

Question: And the “glycan array binding signal (z-score)” value [45]?
Answer: -0.173

From the supplement of paper PMC8728848
